These results are taken from PubChem BioAssay AID1508624 (National Center for Advancing Translational Sciences (NCATS), 2021).

The structures appear in SMILES notation. Values joined by “and” are separate entries in the source; they are usually repeats but may differ in a detail not shown here. Equal entries are not always repeated. Screen size: about 48,000 compounds; about 120 (0.25%) were called active. Roughly 4% stayed inconclusive and do not appear here. Calls come from the whole dose curve; as a rule, active = well fitted activation curve with a large enough effect; inconclusive = small, poorly fitted or top-dose-only effect, or another doubt; inactive = no such curve, though single readings can be large or run the other way. The list shows a part of the results.

The nature of the experiment: Primary qHTS for Identification of Small Molecule Activators of Huntingtin-Antisense Promoter Activity. Note: nearly all actives have a fitted effect of over 55% in size. Conditions: HEK293 HTT-AS promoter firefly luciferase reporter, 24 h; at 57.5 µM (top of the series) unless noted. A digest of the protocol: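 HEK293 cells carrying firefly luciferase reporters were seeded at 2,500 per well in Opti-MEM and cultured for 24 h. They were then treated with compounds at up to 57.5 uM final for 24 h at 37 degrees C before Dual-Glo luminescence readout.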
On the technique in general: In qHTS, concentration-response curves come from the screen itself.
`Cc1c(Cl)c(=O)oc2cc(OP(=O)(OCCCl)OCCCl)ccc12`: the activity change, positive = activation is inactive: -15%.
With `O=C(Nc1ccc2c(c1)OCCO2)c1cccn(Cc2ccccc2)c1=O`, the activity change, positive = activation is inactive: 11.7%.
To `CC[N+]1(CCOC(=O)C(O)(c2ccccc2)c2ccccc2)CCCCC1` belongs inactive: -0.986%; to `C[N+]1(C)[C@@H]2CC[C@H]1CC(OC(=O)C(CO)c1ccccc1)C2` (some centres not stated), inactive: -15.1%.
For the molecule `Cc1ccc(-c2nc(CN3C(=O)CN=C(c4ccccc4Cl)c4cc(Cl)ccc43)c(C)o2)cc1`, the activity change, positive = activation was inactive: -15.1% [at 57.5 µM, percent change from vehicle, -100% = no light].
Regarding `Nc1ccccc1`, the activity change, positive = activation was inactive: -0.652%.
To `O=C1CC(c2ccc(C(F)(F)F)cc2)c2c(c3ccccc3oc2=O)O1` (configuration not stated) belongs inactive: -7.2%.
Under `Cc1cccc(Cn2cccc(C(=O)Nc3nnc(C)s3)c2=O)c1` stands inactive: -9.2% [at 57.5 µM, percent change from vehicle, -100% = no light].
To `COc1cc(CC(C)N)cc2c1OCO2` (configuration not stated) belongs inactive: -12% [at 116 µM]; to `N#Cc1cc2c(nc1SCC(=O)Nc1ccc(F)c(Cl)c1)C1CCN2CC1`, inactive: -10.9% [at 57.5 µM, percent change from vehicle, -100% = no light]; to `CCN[C@@H](C)Cc1ccccc1`, inactive: -7.13% [at 116 µM].
As to `CCCN1CCC[C@@H]2Cc3nc(N)ncc3C[C@H]21`, the activity change, positive = activation is inactive: -2.45%.
Under `CCO[C@H]1O[C@@H]2OC3(C)CC[C@H]4[C@H](C)CC[C@@H]([C@H]1C)[C@@]24OO3` stands inactive: -13.6%.
Under `Cc1ccccc1-n1c(Cn2cnc3c(N)ncnc32)nc2cccc(C)c2c1=O` stands inactive: -30.3%; under `O=C1CC(c2ccc(F)cc2)c2c(c3ccccc3oc2=O)O1` (configuration not stated), inactive: 0.362% [at 57.5 µM, percent change from vehicle, -100% = no light].
To `COCC1(CO)C(=O)C2CCN1CC2` (configuration not stated) belongs inactive: -8.7%.
Turning to `COc1ccc(CCNCc2ccc3c(c2)n(C)c(=O)n3C)cc1`, the activity change, positive = activation was inactive: -10.5% [at 57.5 µM, percent change from vehicle, -100% = no light].
To `O=C(Nc1ccc(Br)cc1C(=O)c1ccccc1Cl)c1ccccc1F` belongs inactive: -11.1% [at 57.5 µM, percent change from vehicle, -100% = no light].
Under `CC(C)(C)[C@]1(O)C[C@@H]2OC(=O)C[C@@]23C(=O)O[C@@H]2OC(=O)[C@H](O)C213` (some centres not stated) stands inactive: -10%; under `CC[C@H](O)C(C[C@H](C)N(C)C)(c1ccccc1)c1ccccc1`, inactive: -50.1% [at 116 µM]; under `CCOc1ccc(NC(=O)c2cccn(Cc3cccc(Cl)c3)c2=O)cc1`, inactive: -33.5%.
To `CC(Cc1ccc(O)cc1)NCC(O)c1cc(O)cc(O)c1` (configuration not stated) belongs inactive: -7.91%.
Consider `Cc1oc(-c2ccccc2Cl)nc1CN1C(=O)CN=C(c2ccccc2)c2cc(Cl)ccc21`, for which the activity change, positive = activation is inactive: -5.59% [at 57.5 µM, percent change from vehicle, -100% = no light].
Under `CS(=O)(=O)c1ccc(C(=O)C2C(=O)CCCC2=O)c([N+](=O)[O-])c1` stands inactive: 2.98% [at 116 µM]; under `COc1ccc(NC(=O)CCc2nc(C3=CCN(Cc4cccc(Cl)c4)CC3)no2)cc1OC`, inactive: -25.5%.
On to `Cc1ccc(-n2nc(C)c3c2NC(=O)CSC3c2ccc(O)cc2)cc1Cl` (configuration not stated), for which the activity change, positive = activation is inactive: -32.1% [at 57.5 µM, percent change from vehicle, -100% = no light].
Under `O=c1c2ccccc2nc(/C=C/c2ccccc2O)n1-c1ccc(Br)cc1` stands inactive: -38.7%; under `CCCC12CN3CC(C)(CN(C1)C3c1ccccn1)C2=O` (configuration not stated), inactive: 3.3% [at 57.5 µM, percent change from vehicle, -100% = no light]; under `O=C1C(I)=CC(=C(c2cc(I)c(O)c(I)c2)c2ccccc2C(=O)O)C=C1I`, inactive: -24.1%.
As to `COc1ccc(NC(C)=O)cc1NC(=O)c1cccn(Cc2ccccc2)c1=O`, the activity change, positive = activation was inactive: 10.4% [at 57.5 µM, percent change from vehicle, -100% = no light].
Regarding `CC[C@H]1C[C@H]2[C@@H]3CCC4=CC(=O)CC[C@@H]4[C@H]3CC[C@]2(C)[C@H]1O`, the activity change, positive = activation was inactive: -4.97%.
Regarding `Cc1nnc(NC(=O)c2cccn(Cc3cccc([N+](=O)[O-])c3)c2=O)s1`, the activity change, positive = activation is inactive: -17.8% [at 57.5 µM, percent change from vehicle, -100% = no light].
To `C[N+]1(CCC(C(N)=O)(c2ccccc2)c2ccccc2)CCCCC1` belongs inactive: 1.7%; to `c1ccc2c(c1)Sc1ccccc1N2CC1CN2CCC1CC2` (configuration not stated), inactive: -52.8%; to `CC(Cc1ccc2c(c1)OCO2)NO` (configuration not stated), inactive: 0.923% [at 116 µM].
For the molecule `COC(C)(C)CCCC(C)C/C=C/C(C)=C/C(=O)OC(C)C` (configuration not stated), the activity change, positive = activation is inactive: 0.341% [at 57.5 µM, percent change from vehicle, -100% = no light].
Take `O=S(=O)(CC1CS1)c1ccc(Oc2ccccc2)cc1` (configuration not stated): the activity change, positive = activation was inactive: 6.79%.
As for `CCOc1ccccc1CN(CCc1ccc2c(c1)OCO2)Cc1ccc(CC)cc1`, the activity change, positive = activation was inactive: -22.7% [at 57.5 µM, percent change from vehicle, -100% = no light].
For the molecule `CSc1ncc(C(=O)Nc2ccc(Cl)cc2C(=O)c2ccccc2)c(C)n1`, the activity change, positive = activation was inactive: -21.1% [at 57.5 µM, percent change from vehicle, -100% = no light].
On to `CC(C)(C)c1ccc(OCC(=O)Nc2ccc(Cl)cc2C(=O)c2ccccc2)cc1`, for which the activity change, positive = activation is inactive: -6.75% [at 57.5 µM, percent change from vehicle, -100% = no light].
Under `C[C@]12Cc3cn[nH]c3C[C@@H]1CC[C@@H]1[C@H]2CC[C@@]2(C)[C@H]1CC[C@]2(C)O` stands inactive: -8.73%; under `Cc1ccc(Cn2cccc(C(=O)Nc3nnc(C)s3)c2=O)cc1`, inactive: -10.1% [at 57.5 µM, percent change from vehicle, -100% = no light]; under `CCN(CC)C(=O)c1ccc(NC(=O)Cn2nc(-c3ccc(C)cc3)c3ccccc3c2=O)cc1`, inactive: 4.1% [at 11.5 µM].
Consider `O=[N+]([O-])c1c(Cl)c(Cl)cc(Cl)c1Cl`, for which the activity change, positive = activation was inactive: -5.49% [at 116 µM].
As for `Cc1ccc(N=CN(C)C=Nc2ccc(C)cc2C)c(C)c1`, the activity change, positive = activation is inactive: 6.28%.
As for `CC(C)CC(N(C)C)C1(c2ccc(Cl)cc2)CCC1` (configuration not stated), the activity change, positive = activation is inactive: -8.3% and inactive: -32.1%.
Under `O=C(O)COc1nc(Cl)c(Cl)cc1Cl` stands inactive: -11.4% [at 116 µM, percent change from vehicle, -100% = no light]; under `C#C[C@]1(O)CC[C@H]2[C@@H]3CCC4=CC(=O)CC[C@]4(C)[C@H]3CC[C@@]21C`, inactive: -61%.
To `C[C@@H]1[C@@H](C(=O)C[C@H]2O[C@@H]3O[C@]4(C)CC[C@@H]5[C@H](C)CC[C@@H]([C@H]2C)[C@@]35OO4)O[C@@H]2O[C@]3(C)CC[C@H]4[C@H](C)CC[C@@H]1[C@@]24OO3` belongs inactive: -19%.
Under `CC(C)[N+](C)(CCC(C(N)=O)(c1ccccc1)c1ccccc1)C(C)C` stands inactive: -2.71%; under `C[C@]12COC(=O)C[C@@H]1CC[C@@H]1[C@H]2CC[C@@]2(C)[C@H]1CC[C@]2(C)O`, inactive: -13%; under `C[C@H]1[C@@H]2Cc3ccc(O)cc3[C@@]1(C)CCN2C`, inactive: -13.4% [at 288 µM].
`O=c1[nH]c2ccccc2n1CCCN1CCC(n2c(=O)[nH]c3cc(Cl)ccc32)CC1`: the activity change, positive = activation was inactive: -17.2% and inactive: -12.6%.
As to `COP(=S)(OC)Oc1ccc(SC)c(C)c1`, the activity change, positive = activation was inactive: -2.5%.
As to `Cc1ccc(NC(=O)N(Cc2ccc3c(c2)OCO3)C2CCN(Cc3ccccc3)CC2)cc1Cl`, the activity change, positive = activation was inactive: -24.8%.
On to `C[C@]12C=CC(=O)C=C1CC[C@@H]1[C@@H]2CC[C@@]2(C)[C@H]1CC[C@]2(C)O`, for which the activity change, positive = activation was inactive: -31.6%.
Consider `CC=C(C)C(=O)O[C@H]1C(C)=C2[C@@H]3OC(=O)[C@@](C)(O)[C@@]3(O)[C@@H](OC(=O)CCC)C[C@](C)(OC(C)=O)[C@@H]2[C@@H]1OC(=O)CCCCCCC`, for which the activity change, positive = activation was inactive: -33%.
Regarding `C[C@]12CC[C@H]3[C@@H](CCC4=CC(=O)CC[C@@H]43)[C@@H]1CC[C@@H]2O`, the activity change, positive = activation is inactive: -17.2%.
On to `COc1cccc(/C=C/c2nc3ccccc3c(=O)n2-c2ccc(Cl)cc2)c1OC`, for which the activity change, positive = activation is inactive: -17.2% [at 57.5 µM, percent change from vehicle, -100% = no light].
Under `CCCC12CN3CC(CCC)(CN(C1)C3c1ccccn1)C2=O` (configuration not stated) stands inactive: 6.45% [at 57.5 µM, percent change from vehicle, -100% = no light]; under `CC(C)[C@H]1C(=O)N[C@H](CO)Cc2c[nH]c3cccc(c23)N1C`, inactive: -27.8%.
Under `CC(C)(N)Cc1ccc(Cl)cc1` stands inactive: -2.95%; under `COCCOCCO`, inactive: -3.13% [at 116 µM]; under `Cc1ccc(-n2c(/C=C/c3cccs3)nc3ccccc3c2=O)cc1C`, inactive: -27.8%.
Turning to `COc1ccc(CN2CCNCC2)c(OC)c1OC`, the activity change, positive = activation was inactive: -0.23%.
Under `CCOc1ccc2nc(NC(=O)c3cccn(Cc4ccccc4)c3=O)sc2c1` stands inactive: -25% [at 57.5 µM, percent change from vehicle, -100% = no light].
To `CSc1ccc(CN2CCN(C(=O)COc3ccc(C)cc3)CC2)cc1` belongs inactive: -64.6%.
